# According to the supplement of paper PMC8728848:
# Some of the results follow.
# B1: HHA (Hippeastrum hybrid) (protein)
# chain: MQQDCNLVLYDVDKPIWASNTGGLARDCHLNMQSDGNLVVYAPRNQVIWASNTQGENGNYVCILQKDRNVVIYGTARWATGTNIHGAGIVGVPGSAPQNTTAEMIKLVRKYLITK
# Key:
# Experiment in all cases: glycan array binding signal (z-score within array); higher = stronger binding
# Settings in all cases: glycan notation: IUPAC condensed, linker removed
# [1] = target: Gal(b1-4)GlcNAc(b1-6)[Gal(b1-3)]GalNAc
# How it was run: (§1)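 The binding signal is a Z-score computed within each array and averaged over linkers. Arrays of the same protein sequence at different concentrations or buffers were also averaged together. Data originate from 3228 arrays in the Consortium for Functional Glycomics database, kept only where the protein sequence was available.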
# [2] = target: Gal(b1-4)GlcNAc(b1-6)[Gal(b1-4)GlcNAc(b1-3)]GalNAc
# How it was run: as §1
# [3] = target: Gal(b1-4)GlcNAc6P
# How it was run: as §1
# [4] = target: Gal(b1-6)Gal
# How it was run: as §1
# [5] = target: Gal3S(b1-3)GalNAc
# How it was run: as §1
# [6] = target: Gal3S(b1-3)GlcNAc
# How it was run: as §1
# [7] = target: Gal3S(b1-3)[Fuc(a1-4)]GlcNAc
# How it was run: as §1
# [8] = target: Gal3S(b1-4)Glc
# How it was run: as §1
# [9] = target: Gal3S(b1-4)Glc6S
# How it was run: as §1
# [10] = target: Gal3S(b1-4)GlcNAc
# How it was run: as §1
# [11] = target: Gal3S(b1-4)GlcNAc6S
# How it was run: as §1
# [12] = target: Gal3S(b1-4)[Fuc(a1-3)]Glc6S
# How it was run: as §1
# [13] = target: Gal3S(b1-4)[Fuc(a1-3)]GlcNAc
# How it was run: as §1
# [14] = target: Gal3S(b1-4)[Fuc(a1-3)]GlcNAc6S
# How it was run: as §1
# [15] = target: Gal3S4S(b1-4)GlcNAc
# How it was run: as §1
# [16] = target: Gal3S6S(b1-4)GlcNAc
# How it was run: as §1
# [17] = target: Gal3S6S(b1-4)GlcNAc6S
# How it was run: as §1
# [18] = target: Gal4S(b1-4)GlcNAc
# How it was run: as §1
# [19] = target: Gal4S6S(b1-4)GlcNAc
# How it was run: as §1
# [20] = target: Gal6P(b1-4)GlcNAc
# How it was run: as §1
# [21] = target: Gal6S(b1-3)GlcNAc
# How it was run: as §1
# [22] = target: Gal6S(b1-3)GlcNAc6S
# How it was run: as §1
# [23] = target: Gal6S(b1-4)Glc
# How it was run: as §1
# [24] = target: Gal6S(b1-4)Glc6S
# How it was run: as §1
# [25] = target: Gal6S(b1-4)GlcNAc
# How it was run: as §1
# [26] = target: Gal6S(b1-4)GlcNAc6S
# How it was run: as §1
# [27] = target: GalNAc(a1-3)Gal
# How it was run: as §1
# [28] = target: GalNAc(a1-3)GalNAc
# How it was run: as §1
# [29] = target: GalNAc(a1-3)GalNAc(a1-3)Gal(a1-4)Gal(b1-4)GlcNAc
# How it was run: as §1
# [30] = target: GalNAc(a1-3)GalNAc(b1-3)Gal(a1-4)Gal(b1-4)Glc
# How it was run: as §1
# [31] = target: GalNAc(b1-3)Gal
# How it was run: as §1
# [32] = target: GalNAc(b1-3)Gal(a1-4)Gal(b1-4)GlcNAc
# How it was run: as §1
# [33] = target: GalNAc(b1-3)Gal(a1-4)Gal(b1-4)GlcNAc(b1-3)Gal(b1-4)Glc
# How it was run: as §1
# [34] = target: GalNAc(b1-3)Gal(a1-6)Gal(b1-4)Glc
# How it was run: as §1
# [35] = target: GalNAc(b1-3)GalNAc
# How it was run: as §1
# [36] = target: GalNAc(b1-3)GlcNAc
# How it was run: as §1
# [37] = target: GalNAc(b1-4)Gal(b1-4)Glc
# How it was run: as §1
# [38] = target: GalNAc(b1-4)GlcNAc
# How it was run: as §1
# [39] = target: GalNAc(b1-4)GlcNAc(b1-2)Man
# How it was run: as §1
# [40] = target: GalNAc(b1-4)GlcNAc(b1-2)Man(a1-3)[GalNAc(b1-4)GlcNAc(b1-2)Man(a1-6)]Man(b1-4)GlcNAc(b1-4)GlcNAc
# How it was run: as §1
# [41] = target: GalNAc(b1-4)GlcNAc(b1-3)GalNAc(b1-4)GlcNAc
# How it was run: as §1
# [42] = target: GalNAc(b1-4)GlcNAc6S
# How it was run: as §1
# [43] = target: GalNAc(b1-6)GalNAc
# How it was run: as §1
# [44] = target: GalNAc3S(b1-4)GlcNAc
# How it was run: as §1
# [45] = target: GalNAc3S(b1-4)GlcNAc3S
# How it was run: as §1
binder,measurement,setting,value
B1,glycan array binding signal (z-score),[1],-0.207
same,glycan array binding signal (z-score),[2],-0.202
same,glycan array binding signal (z-score),[3],-0.209
same,glycan array binding signal (z-score),[4],-0.2
same,glycan array binding signal (z-score),[5],0.241
same,glycan array binding signal (z-score),[6],-0.214
same,glycan array binding signal (z-score),[7],-0.207
same,glycan array binding signal (z-score),[8],-0.2
same,glycan array binding signal (z-score),[9],-0.2
same,glycan array binding signal (z-score),[10],-0.187
same,glycan array binding signal (z-score),[11],0.072
same,glycan array binding signal (z-score),[12],-0.158
same,glycan array binding signal (z-score),[13],-0.208
same,glycan array binding signal (z-score),[14],-0.196
same,glycan array binding signal (z-score),[15],-0.205
same,glycan array binding signal (z-score),[16],-0.208
same,glycan array binding signal (z-score),[17],-0.218
same,glycan array binding signal (z-score),[18],-0.205
same,glycan array binding signal (z-score),[19],-0.212
same,glycan array binding signal (z-score),[20],-0.226
same,glycan array binding signal (z-score),[21],-0.225
same,glycan array binding signal (z-score),[22],-0.215
same,glycan array binding signal (z-score),[23],-0.207
same,glycan array binding signal (z-score),[24],-0.2
same,glycan array binding signal (z-score),[25],-0.218
same,glycan array binding signal (z-score),[26],-0.217
same,glycan array binding signal (z-score),[27],-0.216
same,glycan array binding signal (z-score),[28],-0.215
same,glycan array binding signal (z-score),[29],-0.206
same,glycan array binding signal (z-score),[30],-0.196
same,glycan array binding signal (z-score),[31],-0.21
same,glycan array binding signal (z-score),[32],-0.191
same,glycan array binding signal (z-score),[33],-0.203
same,glycan array binding signal (z-score),[34],-0.203
same,glycan array binding signal (z-score),[35],1.25
same,glycan array binding signal (z-score),[36],-0.21
same,glycan array binding signal (z-score),[37],-0.199
same,glycan array binding signal (z-score),[38],-0.162
same,glycan array binding signal (z-score),[39],-0.213
same,glycan array binding signal (z-score),[40],-0.099
same,glycan array binding signal (z-score),[41],-0.211
same,glycan array binding signal (z-score),[42],-0.209
same,glycan array binding signal (z-score),[43],-0.218
same,glycan array binding signal (z-score),[44],-0.201
same,glycan array binding signal (z-score),[45],-0.223
